{"source": "paper PMC3234886", "about": "(Biochemistry, 2011)", "binders": {"B1": {"name": "Pcf11/Clp1 complex (1:1 heterodimer) (complex)", "chain 1": "not shown", "chain 2": "MASLPGIDEHTTSEELITGDNEWHKLVIPKGSDWQIDLKAEGKLIVKVNSGIVEIFGTELAVDDEYTFQNWKFPIYAVEETELLWKCPDLTTNTITVKPNHTMKYIYNLHFMLEKIRMSNFEGPRVVIVGGSQTGKTSLSRTLCSYALKFNAYQPLYINLDPQQPIFTVPGCISATPISDILDAQLPTWGQSLTSGATLLHNKQPMVKNFGLERINENKDLYLECISQLGQVVGQRLHLDPQVRRSGCIVDTPSISQLDENLAELHHIIEKLNVNIMLVLCSETDPLWEKVKKTFGPELGNNNIFFIPKLDGVSAVDDVYKRSLQRTSIREYFYGSLDTALSPYAIGVDYEDLTIWKPSNVFDNEVGRVELFPVTITPSNLQHAIIAITFAERRADQATVIKSPILGFALITEVNEKRRKLRVLLPVPGRLPSKAMILTSYRYLE"}}, "biological_target": "T1, wild-type Rna14/Rna15 complex (2:2 heterotetramer) (Saccharomyces cerevisiae, UniProt P25298 1-677; P25299 1-296)", "T1 sequence (looked up) 1": "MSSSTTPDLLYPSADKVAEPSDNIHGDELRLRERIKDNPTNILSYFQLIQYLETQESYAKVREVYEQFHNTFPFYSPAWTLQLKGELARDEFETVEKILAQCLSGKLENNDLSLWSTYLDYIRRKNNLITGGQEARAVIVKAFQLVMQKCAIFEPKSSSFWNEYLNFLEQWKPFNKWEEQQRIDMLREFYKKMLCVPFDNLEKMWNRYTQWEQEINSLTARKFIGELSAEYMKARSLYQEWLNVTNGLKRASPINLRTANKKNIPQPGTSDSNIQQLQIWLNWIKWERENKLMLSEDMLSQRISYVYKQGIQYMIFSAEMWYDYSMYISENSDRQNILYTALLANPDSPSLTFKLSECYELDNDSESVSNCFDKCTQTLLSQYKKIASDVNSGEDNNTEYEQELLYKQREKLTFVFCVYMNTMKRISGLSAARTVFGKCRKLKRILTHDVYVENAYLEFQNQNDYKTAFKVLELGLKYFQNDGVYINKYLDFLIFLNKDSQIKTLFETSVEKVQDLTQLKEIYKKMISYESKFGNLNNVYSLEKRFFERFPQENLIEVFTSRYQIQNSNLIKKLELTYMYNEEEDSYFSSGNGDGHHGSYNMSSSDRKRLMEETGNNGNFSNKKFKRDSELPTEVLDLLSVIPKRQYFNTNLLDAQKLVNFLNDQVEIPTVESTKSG", "T1 sequence (looked up) 2": "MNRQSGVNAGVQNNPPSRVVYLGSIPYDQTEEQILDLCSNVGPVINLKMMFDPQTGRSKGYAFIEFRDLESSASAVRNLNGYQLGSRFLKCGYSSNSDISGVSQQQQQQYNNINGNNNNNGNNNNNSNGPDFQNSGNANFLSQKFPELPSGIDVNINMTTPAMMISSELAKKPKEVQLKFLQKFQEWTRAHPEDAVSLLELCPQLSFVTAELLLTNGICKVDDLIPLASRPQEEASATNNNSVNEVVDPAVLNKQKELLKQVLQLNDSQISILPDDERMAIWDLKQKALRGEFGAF", "test": "SEC"}
{"binder": "B1", "values": [{"measurement": "stoichiometry N", "value": "1 Pcf11/Clp1 heterodimer per Rna14/Rna15 heterotetramer"}]}
